Out of some 310,000 compounds screened, about 2,200 (0.71%) showed an effect of 50% or more. The effect is printed as a negative number. Some of the results follow.
Target: human ether-à-go-go-related gene (hERG) potassium channel (human, UniProt Q12809)
Experiment: primary screen, population patch clamp on CHO cells stably expressing hERG

Sequence of human ether-à-go-go-related gene (hERG) potassium channel (Q12809 whole entry, looked up): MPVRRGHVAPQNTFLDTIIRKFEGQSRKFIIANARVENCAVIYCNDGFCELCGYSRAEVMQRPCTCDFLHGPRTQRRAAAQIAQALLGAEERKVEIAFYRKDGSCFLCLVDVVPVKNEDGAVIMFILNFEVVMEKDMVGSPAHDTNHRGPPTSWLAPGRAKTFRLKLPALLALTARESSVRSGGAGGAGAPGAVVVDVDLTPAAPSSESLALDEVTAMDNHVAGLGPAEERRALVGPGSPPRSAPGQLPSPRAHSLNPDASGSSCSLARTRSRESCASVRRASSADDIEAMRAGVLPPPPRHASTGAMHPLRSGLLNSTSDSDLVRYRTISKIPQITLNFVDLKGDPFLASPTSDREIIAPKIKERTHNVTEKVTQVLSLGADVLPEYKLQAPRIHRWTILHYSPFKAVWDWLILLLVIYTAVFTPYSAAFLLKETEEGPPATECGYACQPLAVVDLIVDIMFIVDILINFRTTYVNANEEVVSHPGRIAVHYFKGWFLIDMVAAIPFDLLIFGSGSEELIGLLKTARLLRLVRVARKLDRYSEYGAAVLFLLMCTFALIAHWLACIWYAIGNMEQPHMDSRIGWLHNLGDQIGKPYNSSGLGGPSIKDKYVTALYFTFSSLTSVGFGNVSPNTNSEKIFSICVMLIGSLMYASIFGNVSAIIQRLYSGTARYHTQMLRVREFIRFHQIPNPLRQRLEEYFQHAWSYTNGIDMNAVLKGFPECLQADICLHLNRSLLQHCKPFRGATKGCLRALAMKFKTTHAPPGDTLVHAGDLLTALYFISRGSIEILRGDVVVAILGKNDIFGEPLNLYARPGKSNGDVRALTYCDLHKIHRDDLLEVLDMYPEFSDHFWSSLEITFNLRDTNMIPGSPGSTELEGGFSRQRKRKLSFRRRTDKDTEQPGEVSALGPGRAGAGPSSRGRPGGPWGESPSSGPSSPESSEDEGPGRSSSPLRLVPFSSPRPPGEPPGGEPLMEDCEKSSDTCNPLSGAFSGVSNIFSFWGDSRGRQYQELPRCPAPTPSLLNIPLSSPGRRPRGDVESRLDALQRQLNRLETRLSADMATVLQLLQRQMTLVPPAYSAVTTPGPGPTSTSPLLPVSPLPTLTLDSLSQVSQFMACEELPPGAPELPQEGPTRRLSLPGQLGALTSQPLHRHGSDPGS

SMILES | hERG current change (%, negative = inhibition) at 1uM [%]
CCN(CC)S(=O)(=O)c1ccc(C(=O)Nc2nnc(-c3ccco3)o2)cc1 | 7.23
CCOC(=O)C1=C(COC(=O)CNC(=O)c2cc(OC)c(OC)c(OC)c2)NC(=O)NC1C (centres unmarked) | 3.59
COC(=O)c1ccccc1NC(=O)CN1C(=O)c2ccccc2S1(=O)=O | 8.1
CCCc1nc(NC(=O)c2ccccc2)nc(NC(=O)c2ccccc2)n1 | -2.45
COc1ccc(C(=O)N/N=C/c2ccc(OC(=O)c3cccs3)cc2)cc1 | 4.39
O=C(COc1ccccc1)Nc1ccc([N+](=O)[O-])cc1 | 6.2
CCOc1ccccc1NC(=O)COC(=O)COc1c(Cl)cc(Cl)c2ccc(C)nc12 | 7.8
Cc1cc(C)c(C#N)c(SCc2nnc(-c3ccccc3[N+](=O)[O-])o2)n1 | 6.98
CC1(C)Oc2ccc(C(=O)N/N=C/c3ccc(O)cc3)cc2NC1=O | 14
CCOC(=O)[C@H]1[C@H]2COc3ccc(Cl)cc3[C@@H]2N2C(=O)c3cc(F)c(F)cc3NC(=O)[C@@]12C | 9.69
O=C(NNC(=O)C1CC(c2cccs2)=NO1)Nc1ccc(Cl)cc1 (centres unmarked) | 11
O=C(CSCc1cc(=O)n2ccsc2n1)Nc1ccccc1 | 11.4
COc1cc(C(O)c2nc3ccccc3n2C(C)C)cc(OC)c1OC (centres unmarked) | 14.5
Cc1ccc(NC(=O)c2cnn(-c3ccccc3)c2C)c(C)c1 | 11.3
O=C(c1c[nH]c(C(=O)C(Cl)(Cl)Cl)c1)c1ccc(F)cc1Cl | 15.3
Cc1c(C=O)c2ccccc2n1Cc1ccccc1 | 9.71
CC(=O)Nc1ccc(NC(=O)CC(c2ccccc2)c2ccccc2)cc1 | 17.5
N#Cc1cc2c(nc1SCC(=O)N1CCOCC1)CCCCC2 | 16.4
C=C1N(c2ccccc2)C(=O)OC1(C)C | 9.87
Cn1ncc(Cl)c1C(=O)N1CCN(S(=O)(=O)c2ccc(F)cc2)CC1 | 6.27
O=C(Nc1ccccc1)c1ccc(Br)c(S(=O)(=O)Nc2ccccn2)c1 | 8.98
CC(C)(Oc1ccc(Cl)cc1)C(=O)NCCN1C(=O)S/C(=C/c2cccnc2)C1=O | -16.7

SMILES | hERG current change (%, negative = inhibition) at 1uM [%]
O=C(NCCN1CCOCC1)C(=O)NCC1OCCN1S(=O)(=O)c1cc(F)ccc1F (centres unmarked) | -0.597
CCOC(=O)N(Cc1ccccc1)C(C(=O)O)C(C(=O)O)N(Cc1ccccc1)C(=O)OCC (centres unmarked) | 13.7
CCOc1ccc(N2C(=O)c3ccccc3C2O)cc1 (centres unmarked) | -3.93
O=C(c1ccc2ccccc2n1)N1CCN(Cc2c(F)cccc2Cl)CC1 | 8.6
O=C(Cc1cccc2ccccc12)NCCC1=CCCCC1 | -3.43
Cl.N=C1CCCN1c1ccccc1O | 8.75
Br.c1cc2c(cc1-c1csc(NNC3=NCCCCC3)n1)OCCO2 | -18.8
CC1CCN(c2nc3ccc(C(=O)N4CCN(Cc5ccc6c(c5)OCO6)CC4)cc3s2)CC1 | 7.9
COc1ccc(CCN(C)S(=O)(=O)c2cn(C)c(=O)n(C)c2=O)cc1OC | 9.43
Cc1ccccc1Nc1ncnc2c1cnn2-c1ccccc1 | 13.2
CC(C(=O)NC1C=CS(=O)(=O)C1)N1C(=O)/C(=C/c2cccc(Cl)c2)SC1=S (centres unmarked) | 4.53
O=C(Nc1nccs1)C1CCN(S(=O)(=O)c2cnc[nH]2)CC1 | 9.81
CC(O)c1cccc(NC(=O)CC(c2ccccc2)c2ccccc2)c1 (centres unmarked) | 12
Cc1cc(C)nc(N2CCN(C(=O)c3ccc(S(=O)(=O)N4CCCCCC4)cc3)CC2)n1 | 6.85
O=C(CCn1c(=O)oc2ccccc21)Nc1ccccc1 | 15.3
COc1ccccc1NC(=S)NNC(=O)c1ccncc1 | 17.9
COc1ccc(N=c2cc(-c3ccc(O)cc3)oc3ccccc23)cc1.Cl | -2.66
O=C(Nc1ccc(F)cc1)c1ccccc1S(=O)(=O)c1ccccc1[N+](=O)[O-] | 2.52
Cc1cc(C)c(S(=O)(=O)N2CCC(C(=O)NCc3ccncc3)CC2)c(C)c1 | 11.9
CCC1CCCCN1CCCNC(=O)CN1C(=O)COc2ccc(S(=O)(=O)N3CCOCC3)cc21 (centres unmarked) | -0.484
Cc1cc(=O)oc(C)c1C(=O)N1CCN(C)CC1 | 16.2
Cc1ccc(-c2cc(C(=O)Nc3ccccc3C)c3ccccc3n2)o1 | 11.8
